# Measured values: PubChem BioAssay AID1963576 (National Center for Advancing Translational Sciences (NCATS), 2024)
# In all, about 46,000 compounds went through this assay and about 60 (0.1%) were called active. About 3% were inconclusive and are not listed. Calls come from the whole dose curve; as a rule, active = well fitted inhibition curve with a large enough effect; inconclusive = small, poorly fitted or top-dose-only effect; inactive = no such curve, though single readings can be large or run the other way. The list shows a part of the results.
# Assay: Primary qHTS assay for Inhibitors of ovarian cancer metastasis using an organotypic tumor microenvironment (TME) model.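 For activity change, negative = inhibition: plate controls were DMSO wells for no effect and tomatine positive control wells for full effect.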 Note: nearly all actives have a fitted effect of over 65% in size.
# Conditions: SKOV3ip1-GFP adhesion/invasion on 3D omental model, fluorescence; series mostly up to 45.8 µM; activity change, negative = inhibition: at the top concentration
# Method in brief: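 qHTS, 4-pt dose (0.36-46 umol/L); SKOV3ip1-GFP, 1,200 cells/well, no FBS; primary omental fibroblast/mesothelial co-culture 48 h pre-grown; 2 h RT + 16 h 37 C; PBS wash, 4% PFA; GFP count 488/509 nm.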
SMILES,"activity change, negative = inhibition",outcome
CCc1ccc(NC(=O)Cc2csc(COc3cccc(C)c3)n2)cc1,inactive: 6.82%,
Cc1nc2ccc(S(=O)(=O)NC(C(=O)N3CCN(c4ccc(Cl)cc4)CC3)C(C)C)cc2s1 (configuration not stated),inactive: -2.77%,
CCOc1ccc2oc(=O)cc(CN3CCN(Cc4ccc(F)cc4)CC3)c2c1,inactive: -5.61%,
O=C(CCCn1c(=O)c2ccccc2n(CC(=O)Nc2cccc(Cl)c2)c1=O)NCc1ccc2c(c1)OCO2,inactive: -15.5%,
CCC(=O)N1CCc2cc(Br)cc(S(=O)(=O)CCC(=O)N3CCN(c4ccc(OC)cc4)CC3)c21,inactive: -15%,
CC(=O)c1ccc(N2CCN(c3nc4c(S(=O)(=O)c5ccc(C)c(C)c5)nnn4c4ccc(Cl)cc34)CC2)cc1,inactive: 3.63%,
Cc1cc(C)cc(-n2ccnc2SCC(=O)Nc2ccc(C)cc2C)c1,inactive: -10.4%,
COc1ccc(C(=O)NCC(c2ccc(N(C)C)cc2)N2CCCC2)cc1 (configuration not stated),inactive: -1.77%,
COc1ccc(-c2cc(C(=O)NCc3ccc(F)cc3)no2)cc1,inactive: -17.7%,
COc1cc(NC(=O)CNC(=O)Cn2ccc3ccccc3c2=O)cc(OC)c1OC,inactive: -7.08%,
CC(C)c1ccc(Nc2ncnc3c2nc2n3CCCC2)cc1,inactive: -5.72%,
CCC(=O)Nc1ccccc1-c1nc2ccccc2n(C(C)C(=O)Nc2cccc(Cl)c2C)c1=O (configuration not stated),inactive: 12.8%,
COc1ccc(CCNc2nc(-c3ccc(F)cc3)cc(C(F)(F)F)n2)cc1OC,inactive: -3.83%,
COc1ccc(C(CNC(=O)c2cccc([N+](=O)[O-])c2)N2CCOCC2)cc1 (configuration not stated),,inactive
CCc1ccc(NC(=O)CN2CCSc3ccc(S(=O)(=O)N4CCCC4)cc32)cc1,inactive: 6.26%,
COC(=O)c1cnn(-c2ccc(C(=O)Nc3ccc(OC(F)(F)F)cc3)cc2)c1N,inactive: 10.4%,
Cc1ccc(Cc2cnc(NC(=O)C3Cc4ccc(C)cc4C(=O)O3)s2)cc1 (configuration not stated),,inactive
CCOc1ccc(S(=O)(=O)c2cn(C)c3ccccc3c2=O)cc1,inactive: -2.18%,
Cc1ccc(CNC(=O)Cn2c(=O)ccc3cc(S(=O)(=O)N4CCCC4)ccc32)cc1,,inactive
CC(NC(=O)c1c2c(nc3ccccc13)C(=O)N(C1CCCCC1)C2)c1ccccc1 (configuration not stated),inactive: 5.14%,
Cc1ccc(NC(=O)CN2C(=O)CCn3nc(-c4cccn4C)cc32)c(Cl)c1,inactive: 1.21%,
CCOC(=O)C1CCN(C(=O)Cn2ncc3c4ccccc4n(Cc4ccccc4F)c3c2=O)CC1,inactive: -7.92%,
CN(C)c1ccc(NC(=O)CN2C(=O)c3ccccc3Sc3ccc(C(=O)N4CCCC4)cc32)cc1,inactive: -2.54%,
CCN(C(=O)c1cccn(Cc2ccccc2C)c1=O)c1ccccc1,inactive: 4.9%,

SMILES,"activity change, negative = inhibition",outcome
Cc1ccc(F)cc1NC(=O)c1ccc(Cn2nc(N3CCN(c4ccccc4)CC3)ccc2=O)o1,inactive: -11%,
O=c1n(Cc2ccc(F)cc2)nc2n1-c1cc(Cl)ccc1OC2,,inactive
O=C(Cn1c(-c2cccs2)cc2cc(F)ccc21)NCCCN1CCN(c2ccccc2F)CC1,inactive: -19.1%,
Cc1cccc(N2CCN(CCCNC(=O)c3sc4ncccc4c3-n3cccc3)CC2C)c1 (configuration not stated),inactive: -8.4%,
Cc1nnc(NC(=O)CSc2nnc3c(n2)[nH]c2ccccc23)s1,inactive: 8.05%,
Cc1nn(CCCC(=O)NCc2cccc(Cl)c2)c(=O)c2c1sc1ccccc12,inactive: 9.71%,
O=C(Cn1cc(SCc2ccccc2)c2ccccc21)N1CCCCCC1,inactive: 1.7%,
COc1ccc(-n2nc(C(=O)NCCc3ccc(OC)c(OC)c3)c3c4ccccc4n(C)c3c2=O)cc1Cl,inactive: -0.624%,
Cc1oc(-c2ccc(C(=O)NCCc3ccc(Cl)cc3)cc2)nc1CSc1ccccc1,inactive: -5.43%,
COc1ccc(-c2cn3nc(N4CCC(C(=O)Nc5ccc(Cl)cc5C)CC4)sc3n2)cc1,inactive: -22.1%,
COc1ccc(NC(=O)C2CCN(c3nc4ccccc4nc3C(F)(F)F)CC2)cc1,,inactive
CCOc1ccccc1CNC(=O)c1cnc2c(-c3ccc(OCC)c(OCC)c3)c(C)nn2c1C,inactive: -0.14%,
Cc1ccccc1CN1C(=O)c2ccccc2Sc2ccc(C(=O)OCc3ccco3)cc21,inactive: -7.71%,
Cc1ccc2nc(-c3ccc(Cl)c(NC(=O)c4cccc([N+](=O)[O-])c4C)c3)oc2c1,inactive: -8.13%,
CCn1ccc2cc(S(=O)(=O)N3CCC(C(=O)NCc4ccc(OC)cc4)CC3)ccc21,inactive: 2.63%,
CCOC(=O)C1CCC(CN(Cc2c(Cl)cccc2Cl)S(=O)(=O)c2ccc(Cl)cc2)CC1 (configuration not stated),inactive: -4.86%,
O=C(NCc1ccccc1)c1ccc2c(c1)N(Cc1cccc(Cl)c1)C(=O)c1ccccc1S2(=O)=O,inactive: 2.12%,
Cc1ccc(S(=O)(=O)n2nc(C)c(S(=O)(=O)N3CCC(C)CC3)c2C)cc1,inactive: -1.41%,
Cc1ccc(N2CCN(c3c(CN4CCCC4)c(=O)oc4ccccc34)CC2)c(C)c1,inactive: 0.812%,
COCCCNC(=O)c1c(NC(=O)c2cc(=O)c3ccccc3o2)sc2c1CCCC2,inactive: 1.61%,
Cc1ccc(-c2nc(SCC(=O)N3CCc4ccccc43)c3c(=O)n(C)c(=O)n(C)c3n2)cc1,inactive: 1.43%,
O=C(COCc1cc(-c2ccco2)on1)Nc1cccc(O)c1,,inactive
COc1ccc(Cn2c(SCC(=O)Nc3ccc(OC)cc3)nc3ccccc32)cc1,inactive: 2.51%,
